These results are taken from PubChem BioAssay AID1963576 (National Center for Advancing Translational Sciences (NCATS), 2024).

Hit rate of the full screen: of about 46,000 compounds, about 60 (0.1%) were called active. Roughly 3% stayed inconclusive and do not appear here. Calls come from the whole dose curve; as a rule, active = well fitted inhibition curve with a large enough effect; inconclusive = small, poorly fitted or top-dose-only effect; inactive = no such curve, though single readings can be large or run the other way. The list shows a part of the results.

The assay is described as follows: Primary qHTS assay for Inhibitors of ovarian cancer metastasis using an organotypic tumor microenvironment (TME) model.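 For activity change, negative = inhibition: plate controls were DMSO wells for no effect and tomatine positive control wells for full effect.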 Note: nearly all actives have a fitted effect of over 65% in size. The following applies: SKOV3ip1-GFP adhesion/invasion on 3D omental model, fluorescence; series mostly up to 45.8 µM; activity change, negative = inhibition: at the top concentration. In short, it runs like this:
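Adhesion/invasion was scored as fixed GFP-labeled SKOV3ip1 cell counts (488/509 nm), normalized to DMSO and tomatine controls. Cancer cells in serum-free medium, with four compound doses (0.36-46 umol/L), sat 2 hr at RT then 16 hr at 37 C on a 48 hr fibroblast/mesothelial/ECM culture.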
Background: Quantitative high-throughput screening tests each substance at several concentrations.
As to `NC(=O)NO`, the “activity change, negative = inhibition” value was inactive: 6.01%.

Regarding `Clc1ccccc1C(c1ccccc1)(c1ccccc1)n1ccnc1`, the “activity change, negative = inhibition” value is inactive: -12%.

Regarding `COc1cccc(CNC(=O)CSc2ncc(S(=O)(=O)c3ccc(Br)cc3)c(=O)[nH]2)c1`, the outcome was inactive.

On to `Cc1ccc(-c2nnc(Nc3ccc(Cl)c(Cl)c3)c3ccccc23)cc1S(=O)(=O)NCCO`, for which the result was inactive.

On to `CC1CCN(S(=O)(=O)c2ccc3c(c2)N(CC(=O)NC(C)C)C(=O)CO3)CC1`, for which the “activity change, negative = inhibition” value was inactive: 22.2%.

Regarding `Cc1c(C(=O)Nc2ccc(C(C)C)cc2)sc2nc[nH]c(=O)c12`, the “activity change, negative = inhibition” value was inactive: -9.1%.

`Cc1ccccc1C(=O)N1CCN(CCc2ccccn2)CC1`: the “activity change, negative = inhibition” value was inactive: 6.9%.

With `CC1CCN(S(=O)(=O)c2ccc3c(c2)CCN3C(=O)Nc2ccc(Br)cc2)CC1`, the outcome was inactive.

On to `COc1ccc(CNC(=O)c2ccc3c(c2)CCN3S(=O)(=O)c2ccc(C)cc2)cc1`, for which the “activity change, negative = inhibition” value was inactive: -8.89%.

Take `COc1ccc(CNC(=O)CSc2ncc(S(=O)(=O)c3ccc(C)c(Cl)c3)c(=O)[nH]2)cc1`: the “activity change, negative = inhibition” value is inactive: -6.84%.

Regarding `Cc1ccc(NC(=O)C2CCCN2S(=O)(=O)c2cccc3nsnc23)cc1Cl` (centres undefined), the “activity change, negative = inhibition” value was inactive: 2.66%.

For `Cc1ccc2c(c1)c1c(c(=O)n(-c3ccccc3)c(=O)n1CC(=O)c1ccc(F)cc1)n2C`, the “activity change, negative = inhibition” value was inactive: -5.05%.

In the case of `CCOc1ccc(CNC(=O)CC(C)n2nc(C)cc2C)cc1OC` (centres undefined), the “activity change, negative = inhibition” value was inactive: 2.91%.

Take `CC1=C(C(=O)Nc2ccc(C)cc2C)C(c2ccc(C(=O)O)cc2)n2nc(SCc3ccccc3)nc2N1` (centres undefined): the “activity change, negative = inhibition” value is inactive: 6.71%.

For `CCn1c(-c2nonc2N)nc2cnc(Oc3cccc(NC(=O)c4ccc(OCCN5CCOCC5)cc4)c3)cc21`, the “activity change, negative = inhibition” value is inactive: 13.8%.

Turning to `Cn1c(SCC(=O)N2CCCc3ccccc32)ncc(C(=O)Nc2ccccc2)c1=O`, the “activity change, negative = inhibition” value is inactive: -2.96%.

As for `CCc1nn2c(=O)cc(COC(=O)c3ccc(NC(=O)COc4ccc(C)cc4)cc3)nc2s1`, the “activity change, negative = inhibition” value is inactive: -1.77%.

Consider `COc1ccc(OC)c(CNC(=O)c2cnc3c(C)cccn3c2=O)c1`, for which the “activity change, negative = inhibition” value was inactive: 8.4%.

On to `CCc1cccc(NC(=O)Cn2c(=O)n(-c3cccc(Cl)c3)c(=O)c3c2c2cc(C)ccc2n3C)c1`, for which the “activity change, negative = inhibition” value was inactive: 2.51%.

For the compound `Cc1ccc(NC(=O)c2ccc(CN3CC(=O)N4CCCCC4C3=O)cc2)cc1` (centres undefined), the compound was called inactive.

For the compound `Cc1ccc2[nH]c(=O)c(CN(C(=O)c3cccc(Cl)c3)C(C)(C)C)cc2c1`, the “activity change, negative = inhibition” value is inactive: -13.4%.

On to `Cc1ccccc1C(=O)Nc1cccc(C(=O)OCc2cc(=O)n3ccsc3n2)c1`, for which the “activity change, negative = inhibition” value was inactive: 20.7%.

`CCOC(=O)C(C)Sc1nc(-c2ccccc2Cl)cc(-c2ccccc2)c1C#N` (centres undefined): the “activity change, negative = inhibition” value is inactive: 9.4%.

For `Cc1cc(C)cc(NC(=O)CSc2nc(=O)n(Cc3ccccn3)c3c2CCC3)c1`, the “activity change, negative = inhibition” value is inactive: -6.16%.

Take `CCN(c1ccccc1)S(=O)(=O)c1ccc(-c2cc(C)no2)s1`: the call was inactive.

For `Cc1ccc(C(=O)COC(=O)C(Cc2c[nH]c3ccccc23)NC(=O)c2ccc(C(C)(C)C)cc2)cc1` (centres undefined), the “activity change, negative = inhibition” value is inactive: 0.394%.

As for `CSc1ccc(Cn2nnc(C(=O)Nc3ccc(C)cc3Cl)c2N)cc1`, the compound was classed as inactive.

In the case of `Cc1cccc(C)c1OCc1cc(=O)n2c3c(sc2n1)CCCC3`, the “activity change, negative = inhibition” value was inactive: -4.92%.

With `CC(C)CC(=O)Nc1cc(-c2ccccc2F)nn1-c1ccccc1`, the “activity change, negative = inhibition” value was inactive: -0.432%.

With `C#C[C@]1(O)CC[C@@H]2[C@@H]3CCc4cc(O)ccc4[C@H]3CC[C@@]21C`, the “activity change, negative = inhibition” value is inactive: -8.37%.

Consider `Cc1cccc(Oc2nc3c(c(=O)n(C)c(=O)n3C)n2Cc2ccccc2)c1C`, for which the “activity change, negative = inhibition” value was inactive: 68.8%.

With `COc1ccc(-n2cc(-c3ccccc3)c3c(NC4CCCC4)ncnc32)cc1`, the “activity change, negative = inhibition” value is inactive: -5.87%.

As to `CCOc1ccc(CCNc2nc3ccccc3n3c(C)nnc23)cc1OCC`, the “activity change, negative = inhibition” value is inactive: -14.7%.

As for `COc1cc(NC(=O)Cn2c(=O)n(CC3CCCO3)c(=O)c3ccccc32)cc(OC)c1` (centres undefined), the outcome was inactive.

For the compound `COc1ccc2sc(N(Cc3cccnc3)C(=O)COc3ccccc3)nc2c1`, the “activity change, negative = inhibition” value is inactive: 16.4%.

Consider `COc1ccc(C(=O)Nc2nnc(C(C)C)s2)cc1OC`, for which the outcome was inactive.

Consider `COc1ccccc1-c1noc(CCCC(=O)NCc2ccco2)n1`, for which the “activity change, negative = inhibition” value is inactive: -8.46%.

For `Cc1cc(C)cc(NC(=O)Nc2nnc(N(C)C3CCCCC3)s2)c1`, the “activity change, negative = inhibition” value is inactive: 0.205%.

Consider `COc1ccccc1Cc1nc2ccccc2nc1SCC(=O)Nc1cc(Cl)ccc1OC`, for which the “activity change, negative = inhibition” value is inactive: 4.43%.

For the compound `CCn1cnc2c(=O)oc3ccc(S(=O)(=O)Nc4ccc(OC)cc4)cc3c21`, the “activity change, negative = inhibition” value is inactive: 3.03%.

As to `CCOCCCn1c(=N)c(C(=O)NC2CCCC2)cc2c(=O)n3cc(C)ccc3nc21`, the “activity change, negative = inhibition” value is inactive: 3.18%.

Consider `CCC1CCCCN1S(=O)(=O)c1cc(C(=O)Nc2ccc(C)c(F)c2)ccc1F` (centres undefined), for which the result was inactive.

For `COc1ccc(CCNC(=O)c2ccc(Cn3c(=O)c4ccccc4n(Cc4cccc(C)c4)c3=O)cc2)cc1OC`, the “activity change, negative = inhibition” value was inactive: 3.22%.

Take `Cc1ccc(CNC(=O)c2cnn(-c3cccc(C)c3)c2C2CCN(C(=O)OC(C)(C)C)CC2)cc1`: the “activity change, negative = inhibition” value was inactive: 14.8%.

Turning to `Cc1ccc(NC(=O)c2cc3nc(-c4ccccc4)cc(-c4ccccc4)n3n2)cc1`, the “activity change, negative = inhibition” value was inactive: 29.7%.

Consider `CCCCc1nn2c(=O)cc(COC(=O)c3ccc(NC(=O)C(CC)CC)cc3)nc2s1`, for which the “activity change, negative = inhibition” value is inactive: -10.9%.

For the compound `CC(C)Cn1c(=O)c2sccc2n2c(CCCC(=O)N3CCN(c4ccc(F)cc4)CC3)nnc12`, the “activity change, negative = inhibition” value is inactive: 1.04%.

Regarding `Fc1ccc2[nH]c(-c3cccs3)cc2c1`, the “activity change, negative = inhibition” value was inactive: -7.1%.

For the compound `COc1cccc(-n2c(SCC(=O)Nc3nnc(C)s3)nc3c([nH]c4ccccc43)c2=O)c1`, the “activity change, negative = inhibition” value is inactive: 0.597%.
